Test results published in PubChem BioAssay AID686979 (National Center for Advancing Translational Sciences (NCATS), 2013).
Values joined by “and” are separate entries in the source; they are usually repeats but may differ in a detail not shown here. Equal entries are not always repeated. About 50,000 (12%) of roughly 420,000 compounds were called active. The inconclusive results got no clear call from the source; some entries with a clear call stand among them for comparison. Calls follow the shape of the dose curve; as a rule, active = well fitted inhibition curve with a large enough effect; inconclusive = small, poorly fitted or top-dose-only effect; inactive = flat fitted curve, though single readings scatter. Potencies of inconclusive entries are left out as doubtful fits. More than one record can exist for a structure, and the calls need not agree.

Assay: qHTS for Inhibitors of human tyrosyl-DNA phosphodiesterase 1 (TDP1): qHTS in cells in presence of CPT; also: nearly all actives have a fitted effect of over 55% in size
Conditions: chicken DT40 Tdp1-/-;hTDP1 cells + 20 nM CPT, ATP luminescence, 48 h; activity change, negative = growth inhibition: at 46.2 µM (top of the series) unless noted
Outline: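 Cell growth measured by CellTiter-Glo luminescence after a minimum 48 h, 37 C compound exposure with 20 nM CPT in Tdp1-knockout DT40 cells stably expressing hTDP1, seeded 400/well; qHTS titration format.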
% is scaled to controls: 0 for no effect and ±100 for the full control effect; potency is read from the fitted curve at half-maximal effect; tags tell the direction and shape of the fitted curve.

Compound	Potency	activity change, negative = growth inhibition
CN(C)CCNC(=O)C(=O)Nc1ccc2c(c1)N(S(=O)(=O)c1cccs1)CCC2	active: 16.4 µM	–
CCn1c2ccccc2c2cc(C3C(C#N)=C(C)NC(C)=C3C#N)ccc21	inactive	–
CCOCCCNCc1cccc(OC)c1	inactive	–
Cc1cccc(C(=O)N2CCN(Cc3nc4sc5c(c4c(=O)[nH]3)CCCC5)CC2)c1	inconclusive [inhibitor, partial curve]	–
O=C(NCCC1CCCCN1S(=O)(=O)c1ccccc1)C(=O)NCc1ccc(F)cc1 (stereo not given)	inconclusive [inhibitor, partial curve, poor fit]	–
O=C(COc1ccc(Br)cc1Cl)NC1CCN(Cc2ccccc2)CC1	inconclusive [inhibitor, partial curve]	–
CCC(C)C(=O)Nc1nnc(SCC(=O)Nc2ccccc2F)s1 (stereo not given)	inconclusive [inhibitor, single point]	–
COc1ccc(N2CCN(C(=O)C3CCCN(S(=O)(=O)c4ccc5c(c4)oc(=O)n5C)C3)CC2)cc1 (stereo not given)	active: 16.4 µM and active: 11.6 µM	–
C[C@@H]1CN([C@H](C)CO)C(=O)c2c(c3ccccc3n2C)-c2ccccc2CO[C@@H]1CN(C)S(=O)(=O)c1cccs1	inconclusive [inhibitor, single point]	–
O=C(C(NS(=O)(=O)c1cccs1)c1ccccc1)N1CCN(c2ccccc2F)CC1 (stereo not given)	inconclusive [inhibitor, partial curve]	–
C/C(=N/Nc1nc(-c2ccccc2)c(CC(=O)O)s1)c1ccccc1	inconclusive [inhibitor, single point]	–
COCCn1c(SCC(=O)NNC(=O)Cc2ccccc2)nc2ccccc2c1=O	inactive	–
COc1ccc(Cl)cc1NC(=O)CN(C)C(=O)CSc1ccc2c(c1)OCCO2	inconclusive [inhibitor, single point]	–
COc1ccc(C(=O)NC2CCCc3c2cnn3-c2ccccc2F)cc1OC (stereo not given)	active: 5.17 µM	–
Cc1ccc(C)c(Cn2nnc(C(=O)Nc3ccc4c(c3)OCCO4)c2N)c1	inconclusive [inhibitor, single point]	–
O=C(Nc1cccc(NC(=O)c2ccco2)n1)c1ccco1	inconclusive [inhibitor, partial curve]	–
Fc1ccc(Nc2cccc3nccnc23)cc1	inactive	–
Cc1cc(NC(=O)CCCC(=O)NCc2cccs2)no1	inactive	–
COc1ccccc1C(=O)Nc1ccnn1C1CCN(Cc2cnn(C)c2)CC1	inactive	–
O=C(CC1CCCCC1)Nc1ccccc1-c1ccccc1	inconclusive [inhibitor, single point]	–
O=C(Oc1cccc(Nc2ncnc3ccccc23)c1)c1cccnc1	inconclusive [inhibitor, single point]	–
CCc1cccc(NC(=O)CCn2nc(C)cc2C)c1	inactive	–
Cc1c(NC(=O)c2c(N)sc3c2CCCC3)c(=O)n(-c2ccccc2)n1C	inactive	–
COc1ccccc1CCNC(=O)C1(c2cccs2)CCOCC1	inconclusive [inhibitor, single point]	–

Compound	Potency	activity change, negative = growth inhibition
Cn1nnc2c(N3CCN(Cc4ccccc4)CC3)ncnc21	inconclusive [inhibitor, single point]	–
CC(=O)c1cn(CC(=O)Nc2ccccc2C)c2ccccc12	active: 8.2 µM	–
COC(=O)c1c(NC(=O)COc2ccc(C(C)C)cc2)sc2c1CCCC2	inconclusive [inhibitor, single point]	–
COc1ccccc1-c1noc2ncnc(Nc3cccc(C)c3)c12	inconclusive [inhibitor, single point]	–
CCc1nc2ccc(C(=O)Nc3ccc(OC)c(OC)c3)cn2c1N(C)Cc1ccc(OC)cc1	inconclusive [inhibitor, single point]	–
Cc1ccc(OCC(=O)N/N=C2\CC(=O)CC(C)(C)C2)c(Br)c1	inactive	–
CCCCN(c1ccccc1)S(=O)(=O)c1cccc(C(=O)Nc2c(C)n(C)n(-c3ccccc3)c2=O)c1	inactive	–
O=C(C[n+]1csc2ccccc21)c1ccccc1	inconclusive [inhibitor, single point]	–
CCCCc1cc2ccccc2c(OCCN(C)C)n1	inactive and active: 9.03 µM	–
CCOC(=O)C1(Cc2ccccc2C)CCCN(C(=O)c2ccc(OC)o2)C1 (stereo not given)	inconclusive [inhibitor, single point]	–
COc1ccc(NC(=O)Cn2c(=O)oc3cc(S(=O)(=O)N4CCCC4)ccc32)cc1OC	inconclusive [inhibitor, single point]	–
COc1ccc(CCNC(=O)c2ccc3nc(CCc4ccccc4)oc3c2)cc1OC	–	inconclusive: -32.6% [inhibitor]
CCS(=O)(=O)c1ccc2oc(Nc3ccc(C(C)C)cc3)nc2c1	active: 16.4 µM	–
COc1ccc(Oc2cccc(Cl)c2CNC(=O)CCCC(=O)O)cc1	inactive	–
Cc1cccc(CSc2nc3ccncc3n2CC(=O)N(C)C2CCCCC2)c1	inconclusive [inhibitor, single point]	–
CCCS(=O)(=O)Nc1cccc(-c2cn3ccsc3n2)c1	inconclusive [inhibitor, partial curve]	–
COc1ccc(C(=O)CSc2nnc(CNc3ccc(C)cc3C)o2)cc1	inconclusive [inhibitor, full curve]	–
c1ccc(Oc2ccc(-c3ccnc4nc(N5CCOCC5)nn34)cc2)cc1	active: 14.6 µM	–
CCC(c1nc2ccccc2[nH]1)n1c(-c2cccnc2)nc2ccccc21 (stereo not given)	inactive	–
COc1ccc(C(=O)NCC(c2cccs2)N2CCc3ccccc32)cc1OC (stereo not given)	inconclusive [inhibitor, single point]	–
COc1ccc(-c2[nH]ncc2CN(C)CCc2c(C)n[nH]c2C)c(F)c1	inactive	–
CC1(C)OC(=O)C2=C(C[C@@H](CCc3ccccc3)O[C@@H]2c2ccc(F)cc2)O1	inconclusive [inhibitor, single point]	–
CC(=O)N1CCC2(CC1)CCN(c1ccncc1)CC2	inactive	–
COc1ccc(CNC(=O)c2ccc(CS(=O)Cc3cccc(Cl)c3)o2)cc1 (stereo not given)	inconclusive [inhibitor, single point]	–

Compound	Potency	activity change, negative = growth inhibition
CCC1CN(C(=O)N2CCC(C(=O)NCc3cccs3)CC2)c2ccccc2O1 (stereo not given)	active: 20.6 µM	–
CC1CCN(c2ccc(C(=O)OCC(=O)NCCN3C(=O)CSC3=O)cc2[N+](=O)[O-])CC1	inconclusive [inhibitor, partial curve]	–
O=C1Nc2ccccc2/C1=C\c1cccn1-c1ccc(OC(F)(F)F)cc1	inconclusive [inhibitor, partial curve, poor fit]	–
CCN(CC)S(=O)(=O)c1ccc(N/N=C(\C)c2ccc(OC)cc2O)nc1	active: 3.26 µM	–
Cc1cc(Cl)ccc1OCC(=O)NCC(c1cccs1)N1CCOCC1 (stereo not given)	inconclusive [inhibitor, single point]	–
COc1ccc(N2CCN(C(=O)c3noc4c3CCCCC4)CC2)cc1	inconclusive [inhibitor, single point]	–
Cc1cc(NC(=O)c2cc(-c3cccc(OCC(C)C)c3)nc3ccccc23)no1	inconclusive [inhibitor, partial curve, poor fit]	–
CC(=O)c1ccc(Oc2ncnc(N)c2[N+](=O)[O-])cc1	active: 23.1 µM	–
O=C(Nc1nc(-c2ccccn2)cs1)c1cc2ccccc2o1	inconclusive [inhibitor, single point]	–
O=C1C(=Cc2ccc(F)cc2)Cc2ccccc21	inconclusive [inhibitor, single point]	–
CCC1CCCCN1CCCNC(=O)c1ccc2c(c1)N(Cc1cccc(Cl)c1)C(=O)c1ccccc1S2(=O)=O (stereo not given)	inconclusive [inhibitor, single point]	–
Nc1c(N(CCC2=CCCCC2)C(=O)Cc2ccc(F)cc2)c(=O)[nH]c(=O)n1Cc1ccccc1	inconclusive [inhibitor, single point]	–
CCCCCC(C)NC(=S)NC(=O)c1cc(S(=O)(=O)N2CCOCC2)ccc1C (stereo not given)	inconclusive [inhibitor, single point]	–
CC(=O)c1ccc(NC(=O)c2sc(-n3nc(C)c(Cc4ccc5c(c4)OCO5)c3C)nc2C)cc1	active: 16.4 µM	–
Cc1ccc(C)n1C1CCS(=O)(=O)C1 (stereo not given)	inconclusive [inhibitor, single point]	–
CC(Oc1ccccc1)C(=O)Nc1nnc(S(=O)(=O)N(C)c2ccccc2)s1 (stereo not given)	inconclusive [inhibitor, partial curve]	–
O=C(O)c1ccccc1NCN1C(=O)C2CC=C(Cl)CC2C1=O (stereo not given)	inconclusive [inhibitor, single point]	–
O=C(Nc1ccc2oc(-c3ccc(Br)cc3)nc2c1)c1cc2ccccc2o1	inconclusive [inhibitor, partial curve]	–
COc1cccc(CNCc2c(C(=O)O)n(Cc3ccc(C)cc3)c3cc(C)ccc23)c1OC	inconclusive [inhibitor, single point]	–
CSc1ncccc1C(=O)NC(C)CCc1ccccc1 (stereo not given)	inactive	–
COc1ccc(O)c(/C=N/NC(=S)Nc2cccc(S(=O)(=O)N(C)C)c2)c1	active: 6.51 µM	–
COc1ccc(CCC(=O)O)cc1OC	inactive	–
